From patent publication US11633499B2, “Anti-TMEM-180 antibody, anticancer drug and cancer testing method” (NATIONAL CANCER CENTER JAPAN, priority 2016, dated 2023)
Entries after “also recorded” stand apart in the source; their conditions may differ.

Tests used:
[1] = test system: colon cancer tissue arrays; assay: Staining of colon cancer tissue array (immunohistochemistry); assay type: binding; conditions: tissues D8, B7 and B5; FIG. 17
From the text: The colon cancer tissue arrays were purchased from BioChain Institute Inc. (Newark, Calif.) and used in the experiment. Each tissue array was stained according to the manufacturer's manual.

wild type DLD-1 cells = assay: ADCC activity (51Cr release, TK176V effector cells), wild type DLD-1; assay type: cell-based, human; conditions: ET ratio 40; 4 hours; 0.064 to 1,000 ng/mL; FIGS. 20A to 20D
K562 cells = assay: Binding properties by flow cytometry, K562 negative control; conditions: primary antibody 1 μg/mL or 0.1 μg/mL
Experimental: TMEM-180-forcibly expressed line of the colon cancer cell DLD-1 line, the parent line thereof, and the TMEM-180 knockdown line were cultured. […] K562 cells were used as a negative control.
The cancer cell lines to be subjected to the measurement were suspended in the medium, and then were added to a V-bottom, 96 well plate (corning) at 1×10^5 cells/well. After the plate was centrifuged at 440×g for 3 minutes at 4° C., the supernatant was removed and the antibody solution was added at 50 μL/well to the cell pellet, which was then suspended. The final concentration of the primary antibody was 1 μg/mL or 0.1 μg/mL. After reaction for 45 minutes on ice, the pellet was washed three times with 200 μg/well of 0.1% BSA/2 mM EDTA/PBS. After the supernatant was discarded, the secondary antibody was added at 50 μL/well to the cell pellet, which was then suspended. The ALEXAFLUOR 647@(fluorescent compound) Goat anti-Human IgG (H-L) (Life Technologies) diluted with 0.1% BSA/2 mM EDTA/PBS 400 times was used as a secondary antibody. After reaction for 45 minutes on ice, the cell pellet was washed three times with 0.1% BSA/2 mM EDTA/PBS 200 μL/well. […] The cells thus stained were measured with a flow cytometer such as Guava easyCyte 8HT (Merck Millipore). The obtained data were analyzed with FlowJO (TOMY Digital Biology).

[2] = target: T1, TMEM-180 on colon cancer cell DLD-1 line (Homo sapiens, UniProt Q14CX5); assay: Binding properties by flow cytometry, DLD-1 lines (TMEM-180 forced expression, parent, knockdown); conditions: primary antibody 1 μg/mL or 0.1 μg/mL; FIGS. 15 and 16
T1 construct: endogenous in cells; host or cells: DLD-1 parent line, TMEM-180 knockdown DLD-1 line, and DLD-1 line stably transfected with plasmid RC219636 (human TMEM180 cDNA)
T1 sequence (Q14CX5 1-517): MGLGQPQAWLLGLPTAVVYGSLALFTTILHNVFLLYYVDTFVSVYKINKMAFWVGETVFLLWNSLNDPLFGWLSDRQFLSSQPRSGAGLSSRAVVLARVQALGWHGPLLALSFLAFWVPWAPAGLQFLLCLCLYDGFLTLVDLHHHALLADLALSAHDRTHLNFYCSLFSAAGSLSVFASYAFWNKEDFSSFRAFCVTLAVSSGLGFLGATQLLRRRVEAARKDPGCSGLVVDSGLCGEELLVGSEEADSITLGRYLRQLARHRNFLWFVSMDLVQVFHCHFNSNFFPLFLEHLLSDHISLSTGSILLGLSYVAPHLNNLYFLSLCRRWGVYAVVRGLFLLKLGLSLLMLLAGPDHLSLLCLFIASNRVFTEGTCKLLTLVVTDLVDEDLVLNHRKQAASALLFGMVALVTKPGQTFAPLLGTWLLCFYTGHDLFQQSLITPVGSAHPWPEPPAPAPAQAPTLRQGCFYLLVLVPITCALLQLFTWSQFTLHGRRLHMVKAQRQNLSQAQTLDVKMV

normal stroma = assay: Reactivity to normal stroma; assay type: binding; conditions: compared with the 1361 antibody
[3] = test system: normal tissues (skin, brain, small intestine, liver, heart, lung, kidney); assay: Immune histochemistry of normal human tissues; assay type: binding
Experimental: The paraffin sections were prepared from the tissue specimens in the same way as shown in Example 6 according to a routine procedure. The prepared sections were subjected to reactions with 1 μg/mL of one of the above antibodies. An HRP-labelled anti rat antibody was used as a secondary antibody, which emitted light with DAB. The observation was performed after hematoxylin staining.

B1: 1361-5 antibody: human chimera IgG1 variant of 1361 with Y78A in heavy chain CDR2; heavy chain SEQ ID NO: 180, light chain SEQ ID NO: 182 (antibody)
heavy: MDIRLSLVFLVLFIKGVQCEVQLVESGGGLVQPGRSLKLSCVASGFTFNNYWMTWIRQAPGKGLEWVASITNTGGSTAYPDSVKGRFTISRDYAKSTLYLQMNSLRSEDTATYYCTRAGYSSYPDYFDYWGQGVMLTVSS[human IgG1 constant region not shown]
light: MMAPVQLLGLLLLWLPAMRCNIQMTQSPSLLSASVGDRVTLSCKAGQNIYNYLAWYQQKLGEAPKLLIYNANSLQTGIPSRFSGSGSGTDFTLTISSLQPEDVATYFCQQYSSGWTFGGGTKLELKRTVAAPSVFIFPPSDEQLKSGTASVVCLLNNFYPREAKVQWKVDNALQSGNSQESVTEQDSKDSTYSLSSTLTLSKADYEKHKVYACEVTHQGLSSPVTKSFNRGEC
staining of colon cancer tissue array [1]: well stains the tissues; also recorded: well stained | ADCC activity against wild type DLD-1 cells (wild type DLD-1 cells): stronger than that of cetuximab | recognition of K562 cells (K562 cells): did not recognize | binding to DLD-1 cell line [2]: binds to the surface; also recorded: recognized DLD-1 cell line in a TMEM-180 dependent manner | reactivity to normal stroma (normal stroma): reduced reactivity to normal stroma | reactivity to normal skin tissues ([3]; FIG. 13): does not recognize normal skin tissues | recognition of normal tissues besides skin ([3]; FIG. 14): does not recognize normal tissues besides skin
